# Results from PubChem BioAssay AID463254 (National Center for Advancing Translational Sciences (NCATS), 2010).
# The whole screen tested about 330,000 compounds, of which about 40 (0.01%) were called active. Inconclusive results, whose numbers are uncertain, are shown with a selection of clear calls. The call rests on the fitted dose curve; in most records, active means well fitted inhibition curve with a large enough effect; inconclusive means small, poorly fitted or top-dose-only effect, or effect the other way; inactive means flat fitted curve, though single readings scatter. Potencies beside an inconclusive call are fits to weak or partial responses and may not hold up.
# Target: Ubiquitin carboxyl-terminal hydrolase 2 (Homo sapiens) (UniProt O75604)
# Sequence of UniProt O75604 (O75604 whole entry, looked up): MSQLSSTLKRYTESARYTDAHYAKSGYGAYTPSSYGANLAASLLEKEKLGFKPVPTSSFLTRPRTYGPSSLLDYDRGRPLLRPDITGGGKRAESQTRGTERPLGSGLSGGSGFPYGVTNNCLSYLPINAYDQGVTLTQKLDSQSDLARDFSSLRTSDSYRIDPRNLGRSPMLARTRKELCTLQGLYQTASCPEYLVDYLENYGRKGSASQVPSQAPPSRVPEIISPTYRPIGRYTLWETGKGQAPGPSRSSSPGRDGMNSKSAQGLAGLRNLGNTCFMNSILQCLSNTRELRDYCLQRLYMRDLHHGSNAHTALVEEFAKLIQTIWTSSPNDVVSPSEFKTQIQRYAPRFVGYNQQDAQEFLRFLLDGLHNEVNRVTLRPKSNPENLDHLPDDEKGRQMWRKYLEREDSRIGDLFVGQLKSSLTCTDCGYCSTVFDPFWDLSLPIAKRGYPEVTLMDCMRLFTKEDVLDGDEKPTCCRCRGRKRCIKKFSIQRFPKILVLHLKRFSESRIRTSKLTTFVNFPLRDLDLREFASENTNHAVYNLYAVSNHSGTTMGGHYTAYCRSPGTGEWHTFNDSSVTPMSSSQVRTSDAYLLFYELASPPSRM
# Test: qHTS Assay for Inhibitors of Ubiquitin-specific Protease USP2a Using CHOP2 as the Reporter
# Details: USP2 core, Ub-CHOP2 coupled fluorogenic reporter, 485/531; series mostly up to 38.3 µM
# Method in brief: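 USP2 core (10nM final) preincubated 30min RT with compound in 20mM Tris-HCl pH 8.0, 2mM CaCl2, 2mM beta-mercaptoethanol, 0.05% CHAPS; 25nM Ub-CHOP2 plus 25nM reporter substrate added, fluorescence (Ex485/Em531) read after 60min.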
# Potency means the concentration at half of the fitted maximal effect; tags describe the fitted curve by direction and shape or compound fluorescence and quenching.
row,SMILES,Potency
1,CCOC(=O)C1CCCN(C(=O)c2cc(Nc3ccc(OC)cc3OC)nc3ccccc23)C1 (stereo unspecified),inactive
2,Cc1nc(N(C)C)c2sc(=S)n(C)c2n1,"inconclusive: 28.2 µM [falling, single point]"
3,CCn1c(COc2ccccc2)nnc1SCC(=O)CC(=O)Nc1ccccc1OC,"inconclusive: 14.1 µM [falling, single point]"
4,CC(=O)Oc1ccc2c(c1)O/C(=C\c1ccncc1)C2=O,"inconclusive: 11.2 µM [fluorescent, partial curve]"
5,O=C(OCc1nc2ccccc2[n+]([O-])c1C(=O)c1ccccc1)c1cccs1,"inconclusive: 3.55 µM [falling, single point]"
6,NS(=O)(=O)c1cc(C(=O)NC2CCSc3ccccc32)ccc1Cl (stereo unspecified),"inconclusive: 20 µM [falling, single point]"
7,CCCC(C)c1nnc(NC(=O)CCS(=O)(=O)Cc2ccccc2)s1 (stereo unspecified),inactive
8,CCOc1ccc(NC(=O)COc2ccc(C(=O)NCc3cccnc3)cc2OC)cc1,inactive
9,CC(=O)NCc1ccc(S(=O)(=O)N2CCCN(C)CC2)cc1,inactive
10,Cc1cc(SCC(=O)NC2CCCCC2)nc2ccccc12,"inconclusive: 5.01 µM [falling, single point]"
11,COCCNC(=O)c1c[nH]c2ccc(S(=O)(=O)N3CCC4(CC3)OCCO4)cc2c1=O,inactive
12,CC(=O)N1N=C(c2ccc(Cl)cc2)OC1c1ccc(C(C)C)cc1 (stereo unspecified),inactive
13,C=CCn1c(Br)nc2c1c(=O)n(C)c(=O)n2C,"inconclusive: 28.2 µM [falling, single point]"
14,CC1=C(C)/C(=N\OS(=O)(=O)c2ccccc2)C=CC1=O,inactive
15,S=C(Nc1ccc(Oc2ccccc2)cc1)NC1CCCCC1,inactive
16,CCCCn1nc(C(=O)NC2CCCCCC2)c2ccccc2c1=O,inactive
17,Cc1cc(C)c2c(N=CN(C)C)c(C(=O)N3CCN(c4ncccn4)CC3)sc2n1,"inconclusive: 28.2 µM [falling, single point]"
18,CCOc1ccccc1C(=O)NC1CC2CCCC(C1)N2C1CC1 (stereo unspecified),active: 10 µM
19,O=C(O)CCCn1cc(NC(=O)c2cc(F)c(F)cc2Cl)cn1,inactive
20,CC(C(=O)NCCN1C(=O)S/C(=C\c2cccnc2)C1=O)N1C(=O)c2ccccc2C1=O (stereo unspecified),inactive
21,CN(C)c1ccc(/C=C/c2nc3ccccc3c(=O)n2-c2ccc(C(=O)O)cc2)cc1,"inconclusive: 11.2 µM [fluorescent, partial curve]"
22,O=C(NN=C1CCN(Cc2ccccc2)CC1)c1cc2ccccc2cc1O,"inconclusive: 20 µM [falling, single point]"
23,CCOc1ccccc1N(CC(=O)NC(C)(C)C)C(=O)c1ccc(CN2CCOCC2)o1,"inconclusive: 28.2 µM [falling, single point]"
24,O=C(CSc1nnc(SCc2ccccc2)s1)N/N=C/C=C/c1ccco1,"inconclusive: 28.2 µM [falling, single point]"

row,SMILES,Potency
1,COCCCNC(=O)C1CCN(c2nc(C)cc(C)n2)CC1,"inconclusive: 3.16 µM [falling, single point]"
2,O=C1CS/C(=C/C(=O)c2ccccc2)N1,"inconclusive: 20 µM [falling, single point]"
3,O=C(O)c1cccc(-c2ccc(/C=c3/sc4nc5ccccc5n4c3=O)o2)c1,"inconclusive: 14.1 µM [fluorescent, single point]"
4,O=S(=O)(Nc1nc2ccccc2nc1Nc1cccc(S(=O)(=O)N2CCCCC2)c1)c1ccccc1,inactive
5,O=C(/C=C/c1ccc(Cl)c([N+](=O)[O-])c1)Nc1ccc(N2CCCC2)cc1,"inconclusive: 28.2 µM [falling, single point]"
6,COc1ccc(-c2nc(Cn3c(SCc4ccc(F)cc4)nc4ccncc43)c(C)o2)cc1OC,"inconclusive: 3.16 µM [falling, single point]"
7,O=C(COC(=O)c1cccc(S(=O)(=O)N2CCc3ccccc32)c1)NC1CCS(=O)(=O)C1 (stereo unspecified),"inconclusive: 28.2 µM [falling, single point]"
8,COc1ccc(CN2CCCC(C(=O)N3CCc4ccccc4C3)C2)cc1OC (stereo unspecified),inactive
9,COc1cc2c(cc1NC(=O)Cc1ccc(C)cc1)oc1ccccc12,inactive
10,OCCCc1nc2n(n1)C(c1cccs1)C=C(c1ccc(Br)cc1)N2 (stereo unspecified),"inconclusive: 14.1 µM [fluorescent, partial curve]"
11,C#CCOCCOCCOCCNc1nc(N2CCN(C(=O)CCCCCCCCCCNC(=O)[C@H](CO)n3cc(CCCSC)nn3)CC2)nc(N2CCN(C(=O)CCCCCCCCCCNC(=O)[C@H](CCCN=C(N)N)n3cc(C[C@@H](C)CC)nn3)CC2)n1,"inconclusive: 28.2 µM [falling, single point]"
12,CC(=O)c1c(C)[nH]c(C(=O)CN2CCN(S(=O)(=O)c3ccccc3[N+](=O)[O-])CC2)c1C,inactive
13,Cc1ccc(C(=O)Nc2cccc(NC(=O)c3cccs3)c2)c(C)c1,inactive
14,CCOC(=O)/C(=C/C=C1\Sc2cc(OCC)c(OCC)cc2N1CC)C(C)=O,"inconclusive: 1.78 µM [fluorescent, full curve]"
15,COc1cc([C@H]2Oc3cc([C@H]4Oc5cc(O)cc(O)c5C(=O)[C@@H]4O)ccc3O[C@@H]2CO)ccc1O,inactive
16,Cc1ccc(S(=O)(=O)Nc2ccc(N3CCOCC3)cc2)cc1,"inconclusive: 22.4 µM [falling, single point]"
17,COc1ccc(OC)c(-c2csc(NC(=O)COC(=O)c3ccc(NC(=O)CC#N)cc3)n2)c1,"inconclusive: 28.2 µM [falling, single point]"
18,COCCNC(=O)Cn1cc(/C=N/NC(=O)c2ccc(Oc3ccc(O)cc3)cc2)c2ccccc21,inactive
19,C[n+]1ccc(/C=C/c2ccc(Br)cc2)cc1,inactive
20,CCC(C)Cn1c(O)cc2nn(-c3nc4ccccc4s3)c(=O)c-2c1C (stereo unspecified),"inconclusive: 20 µM [falling, single point]"
21,COc1cc(CNCCCN2CCOCC2)cc(Br)c1OCc1ccc(Cl)cc1,inactive
22,NNC(=O)CSc1cccc2cccnc12,inactive
23,C#CCOCCOCCOCCNc1nc(N2CCN(C(=O)CCCCCCCCCCNC(=O)[C@H]([C@@H](C)CC)n3cc(CCCCCN)nn3)CC2)nc(N2CCN(C(=O)CCCCCCCCCCNC(=O)[C@H](CO)n3cc(CCCCCN)nn3)CC2)n1,"inconclusive: 28.2 µM [falling, single point]"
24,O=C(/C=C/c1ccc(O)c(O)c1)O[C@H](Cc1ccc(O)c(O)c1)C(=O)O,"inconclusive: 25.1 µM [falling, single point]"

row,SMILES,Potency
1,CC(C)(C)C(=O)Nc1c2c(nc3c1CCC3)CCCC2,"inconclusive: 28.2 µM [falling, single point]"
2,COC(=O)c1c(O)c2c([nH]c1=O)CCCC2,"inconclusive: 5.01 µM [falling, single point]"
3,COc1ccccc1NS(=O)(=O)c1cc(NC(=O)c2cc[n+]([O-])cc2)ccc1N1CCCC1,inactive
4,Nc1cc(C(=O)O)c(N)c2c1C(=O)c1ccccc1C2=O,"inconclusive: 25.1 µM [fluorescent, single point]"
5,Cc1ccc(S(=O)(=O)Oc2ccc(/C=C3/N=C(c4ccccc4)OC3=O)cc2)cc1,inactive
6,O=C1S/C(=C\C=C\c2ccco2)C(=O)N1c1ccc(O)cc1,"inconclusive: 22.4 µM [falling, single point]"
7,CSC1=NSC2=NC(=O)/C(=C/c3coc4ccc(O)cc4c3=O)C(=N)N12,"inconclusive: 11.2 µM [fluorescent, single point]"
8,Cc1c(Cl)cccc1NC(=O)CCNC(=O)N1CC(=O)Nc2ccccc21,inactive
9,CN1/C(=C\C(=S)NC(=O)c2ccccc2Cl)C(C)(C)c2ccccc21,inactive
10,CCOC(=O)/C(=C/C1=CC(=C/N(C)C)/C(=O)O1)C(C)=O,"inconclusive: 11.2 µM [fluorescent, partial curve]"
11,O=c1cc(O)nc(-c2ccccc2)s1,inactive
12,CC(C)CC(=O)NC(=S)Nc1nc(-c2ccc(Cl)cc2)cs1,"inconclusive: 5.01 µM [falling, single point]"
13,CCNc1sc(C(=O)c2cccs2)c(N)c1-c1nc2ccccc2s1,"inconclusive: 20 µM [falling, single point]"
14,COc1ccc(S(=O)(=O)N2CCC(C(=O)NC(c3nc4ccccc4[nH]3)C(C)C)CC2)cc1 (stereo unspecified),"inconclusive: 14.1 µM [fluorescent, single point]"
15,C=C(CCC(=O)c1ccccc1)C(=O)c1ccccc1,"inconclusive: 3.16 µM [falling, single point]"
16,COc1ccc(/C(N)=N/OC(=O)c2ccc(C)c([N+](=O)[O-])c2)cc1,inactive
17,O=C(CC1CCCCC1)NCCOc1ccccc1,inactive
18,COc1ccc(N=Nc2nc3cc(Br)c(Br)cc3n2C)c(OC)c1,"inconclusive: 11.2 µM [fluorescent, partial curve]"
19,COC(=O)Cc1c(C)[nH]n(-c2cc(Cl)cc(Cl)c2)c1=O,inactive
20,COc1ccc(C2/C=C\CC(NC(=O)OCC3c4ccccc4-c4ccccc43)CC(=O)N2Cc2ccccc2F)cc1 (stereo unspecified),inactive
21,COc1ccccc1NS(=O)(=O)c1cc(N)ccc1N1CCCC1,inactive
22,CC(C)C1NC2(C(=O)c3ccccc3C2=O)C2C(=O)N(c3ccc(F)cc3)C(=O)C12 (stereo unspecified),"inconclusive: 15.8 µM [fluorescent, single point]"
23,COc1ccc(/C=C2\CCCc3c2nc2ccccc2c3C(=O)O)cc1OC,"inconclusive: 10 µM [fluorescent, partial curve]"
